# Source: the supplement of paper PMC4166925
# ± gives the standard deviation of the averaged measurements. The full ranking holds about 33,000 sequences; the median of “E-score (dimensionless, -0.5 to 0.5)” is about -0.049, and the highest 2% start at about 0.37. Some of the results follow.
# Tested on: T1, PmTbr T-box DNA-binding domain (GST fusion)
# T1 sequence: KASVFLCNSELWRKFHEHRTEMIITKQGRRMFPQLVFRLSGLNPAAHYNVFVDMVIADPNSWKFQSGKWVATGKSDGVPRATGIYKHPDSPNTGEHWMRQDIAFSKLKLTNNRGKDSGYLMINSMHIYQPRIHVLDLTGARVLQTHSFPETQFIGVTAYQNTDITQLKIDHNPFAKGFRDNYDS
# Experiment: PBM E-score of 8-mer (E-score (dimensionless, -0.5 to 0.5)); Tbr is Tbrain of the sea star Patiria miniata (Pm) or the sea urchin Strongylocentrotus purpuratus (Sp); higher = stronger binding preference; most listed sequences are background and not binding sites
# Settings: the construct has about 5 more residues each side
# Summary of the method: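 Universal Agilent oligonucleotide arrays, made double-stranded by primer extension, were incubated with 200 nM GST-fused Tbr T-box DNA-binding domain in PBS (pH 7.5). The protein was expressed in BL21 E. coli at 20 °C and purified by glutathione affinity chromatography. After scanning and quantification, the Universal PBM Analysis Suite assigned an enrichment E-score to each ungapped 8-mer, averaged over duplicate arrays.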
row,Sequence,PBM E-score of 8-mer
1,TACCCCTA,-0.165 ± 0.015
2,CGCAAGCG,-0.0285 ± 0.014
3,GGTCGGAC,-0.34 ± 0.0058
4,ATATCAAA,-0.149 ± 0.13
5,TAGATCTA,-0.0688 ± 0.056
6,AGCCGTTC,-0.059 ± 0.063
7,CTGCATTC,-0.162 ± 0.0018
8,AAGTCGTC,0.0699 ± 0.0037
9,CAACACAC,0.251 ± 0.01
10,GACAGAGC,-0.242 ± 0.038
11,AAAAAGGG,-0.231 ± 0.041
12,AGGGAAAA,-0.317 ± 0.056
13,AGAGGGTC,-0.202 ± 0.011
14,AACTGGGA,-0.1294 ± 0.00035
15,GCTACCCA,-0.114 ± 0.0049
16,GCTGGCCA,-0.156 ± 0.054
17,ACAGACAA,-0.0199 ± 0.026
18,CCTACTTA,0.126 ± 0.084
19,AGACGGGC,-0.162 ± 0.093
20,AAGTCTCT,0.00628 ± 0.02
21,CAATGTGA,0.234 ± 0.051
22,GAGCTCAC,0.00877 ± 0.045
23,ATCTACAG,-0.17 ± 0.064
24,TATGCGGA,-0.2886 ± 0.0024
25,ACGGATTC,-0.0597 ± 0.066

row,Sequence,PBM E-score of 8-mer
1,CGCACGCA,0.102 ± 0.035
2,AGCTCGGA,-0.122 ± 0.04
3,CAGGGACA,-0.163 ± 0.024
4,GTATTTCA,-0.158 ± 0.033
5,CACCCCAC,0.3 ± 0.0046
6,AGTGTTGG,0.3857 ± 0.0032
7,TAGGAAGA,-0.274 ± 0.024
8,GAGGCGCC,0.269 ± 0.018
9,CGTTGTTA,0.157 ± 0.043
10,CGAGTACG,-0.0151 ± 0.037
11,CAACTACG,-0.0958 ± 0.098
12,CGCTGGGA,0.0765 ± 0.033
13,AAATATCG,0.0501 ± 0.066
14,TCTGTAAA,-0.0431 ± 0.014
15,ACCAAGGT,0.0279 ± 0.048
16,ACCATCCT,-0.177 ± 0.042
17,CTGAGGCC,-0.275 ± 0.022
18,TGCTAGAA,0.18 ± 0.036
19,GTCTCCTA,-0.212 ± 0.035
20,GATCGGAA,-0.00021 ± 0.063
21,ATTAACTG,0.0586 ± 0.074
22,GATAATGC,0.103 ± 0.068
23,ACAAAGAA,-0.0823 ± 0.024
24,GAATAAGC,-0.118 ± 0.015
25,AATCAGCT,-0.201 ± 0.057

row,Sequence,PBM E-score of 8-mer
1,CGTGACGC,0.232 ± 0.0054
2,CAAACCCC,-0.155 ± 0.069
3,AACAGCGT,-0.0224 ± 0.014
4,CGAGGCAA,-0.161 ± 0.045
5,CGAATAAA,0.0158 ± 0.011
6,TCACTCGA,0.0862 ± 0.055
7,ATCGGTAA,-0.00438 ± 0.039
8,AGGCACAG,-0.0356 ± 0.0048
9,AGCCTTGA,-0.126 ± 0.063
10,AGTTGCTA,0.3044 ± 0.0029
11,CAGACACA,0.242 ± 0.027
12,CACGGGCG,-0.00187 ± 0.056
13,CTAGGGTC,-0.0801 ± 0.0023
14,CCCTGCGA,0.21 ± 0.029
15,CGTCGCAA,0.156 ± 0.03
16,CGTCGGCA,0.0887 ± 0.063
17,CGGCGTGA,0.327 ± 0.0041
18,CCTACCAA,-0.0681 ± 0.08
19,AGGGTGCA,0.208 ± 0.047
20,AACTTGAA,-0.172 ± 0.089
21,CTTTCTGA,-0.106 ± 0.05
22,AAATCACC,0.233 ± 0.013
23,AATCCGCT,0.043 ± 0.038
24,GCACAGGA,-0.162 ± 0.05
25,GTCAAAGA,0.00277 ± 0.089

row,Sequence,PBM E-score of 8-mer
1,GGATATAC,-0.175 ± 0.043
2,TACGTAGA,-0.139 ± 0.028
3,ACAGCTCA,0.237 ± 0.0098
4,CATTCCGC,-0.0952 ± 0.02
5,ATAGACAG,0.0457 ± 0.014
6,CTCGGTTC,-0.0317 ± 0.029
7,AAGTATTC,-0.202 ± 0.021
8,AGAGTGCT,0.0114 ± 0.0079
9,AACGCCTT,0.3747 ± 0.00064
10,CAGCTCAA,0.0425 ± 0.028
11,ATTTGGCC,-0.117 ± 0.032
12,CGGCGTTA,0.189 ± 0.00085
13,ATCATAAT,-0.0367 ± 0.044
14,ATTGAGCC,0.0447 ± 0.065
15,CAGTTTGC,0.124 ± 0.053
16,CATAAAGG,-0.194 ± 0.048
17,CCTCCTAA,-0.218 ± 0.063
18,CAGTCTCC,-0.2 ± 0.074
19,GATAGACC,-0.214 ± 0.02
20,ATAAAAAC,-0.157 ± 0.0025
21,CACCAGGC,0.123 ± 0.0022
22,CACCTAAG,0.381 ± 0.021
23,TATAAGGA,-0.154 ± 0.073
24,TAAGTAGA,0.0354 ± 0.03
25,CCCTTCAG,-0.162 ± 0.012

row,Sequence,PBM E-score of 8-mer
1,CACCGATA,-0.0611 ± 0.032
2,ATCTCAGA,-0.163 ± 0.017
3,AGTTATGG,-0.161 ± 0.056
4,ATGATGCC,-0.00477 ± 0.022
5,ATTCACGC,0.4258 ± 0.0014
6,GAAGCCCA,-0.192 ± 0.0033
7,GATGTACC,-0.196 ± 0.0084
8,AACCGGGC,-0.257 ± 0.035
9,GACTACGA,0.0448 ± 0.043
10,AGCTGTAA,0.0772 ± 0.044
11,CCGGTGCA,-0.245 ± 0.013
12,TATGGTCA,-0.104 ± 0.036
13,CCGGCAGG,-0.0858 ± 0.081
14,CCTTTGAG,-0.172 ± 0.005
15,CTCATATC,-0.0155 ± 0.095
16,AGTTTAAA,0.012 ± 0.076
17,ATGAGGGA,-0.184 ± 0.032
18,AGATGTTG,0.0167 ± 0.014
19,ACAGTTAT,0.125 ± 0.093
20,AGCTAGCA,0.0818 ± 0.054
21,AGGTCGGG,-0.193 ± 0.019
22,GCAGAAGC,-0.26 ± 0.063
23,GACGCTCA,-0.0055 ± 0.1
24,GACCCCAA,-0.0833 ± 0.063
25,AATGCAGT,-0.145 ± 0.059

row,Sequence,PBM E-score of 8-mer
1,CCATGTGC,0.19 ± 0.051
2,AGCCAGGG,-0.226 ± 0.009
3,ACTGGATG,-0.025 ± 0.017
4,AGCCTCTC,-0.123 ± 0.0076
5,CAGCAGCG,-0.151 ± 0.0014
6,CCTGCGAC,0.173 ± 0.046
7,CCACACCG,0.134 ± 0.063
8,CGTAAGCA,-0.0733 ± 0.049
9,AGATAAAC,-0.0681 ± 0.042
10,CAGTCCAG,-0.123 ± 0.074
11,CGGGCCAG,-0.182 ± 0.023
12,CTTGGGGC,0.128 ± 0.069
13,AAGACATG,0.0276 ± 0.03
14,CAGCGCAA,-0.122 ± 0.014
15,GGCCCAAA,-0.257 ± 0.012
16,ACTGGACC,-0.204 ± 0.071
17,ATCATGAA,-0.223 ± 0.019
18,GAATGTGC,0.243 ± 0.0084
19,AAAGTCAG,-0.353 ± 0.013
20,CGCATTAG,-0.0871 ± 0.073
21,CTTACGAC,-0.0955 ± 0.067
22,AAAACAAG,-0.186 ± 0.046
23,CGTGCGAG,0.358 ± 0.018
24,CAAACTGC,-0.00734 ± 0.029
25,AGCACGTA,0.226 ± 0.029

row,Sequence,PBM E-score of 8-mer
1,GCCCCTAA,-0.178 ± 0.064
2,CAGTGTGG,0.249 ± 0.013
3,ACGCGTAC,0.148 ± 0.027
4,GATACGCC,-0.0583 ± 0.029
5,AAGCGCTA,0.314 ± 0.018
6,AATTAACT,0.0784 ± 0.093
7,AAGCGTAT,-0.125 ± 0.0088
8,CTCTACGC,-0.19 ± 0.053
9,CAGCCTAC,0.215 ± 0.055
10,CGCGGGCA,-0.0525 ± 0.049
11,CCTCGCCG,0.147 ± 0.064
12,ACGGGCGC,0.0455 ± 0.05
13,ATATGCTG,-0.123 ± 0.015
14,CAAGATGC,-0.0815 ± 0.046
15,GCAATACA,-0.139 ± 0.021
16,CCCCCATA,-0.167 ± 0.043
17,GCCCGTTA,0.122 ± 0.02
18,CAAGTATC,-0.0543 ± 0.007
19,ACATCGCA,0.229 ± 0.0078
20,CATCAGGC,-0.0446 ± 0.083
21,GCTTCGTA,-0.125 ± 0.055
22,ATAAAATC,0.039 ± 0.029
